Assay results taken from the supplement of paper PMC8728848.
The list shows a part of the results.

Experiments:
Assay in all cases: glycan array binding signal (z-score within array); higher = stronger binding
Conditions in all cases: glycan notation: IUPAC condensed, linker removed
[1] = target: Neu5Ac(a2-3)Gal(b1-4)[Fuc(a1-3)]GlcNAc6S
How it was run: (§1)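 Glycan array data were curated from 3228 arrays in the Consortium for Functional Glycomics database and kept only where the protein sequence was available. Glycan names were converted to IUPAC-condensed notation, and columns mapping to the same glycan were averaged. The binding signal is a within-array Z-score, averaged across arrays of the same protein sequence at different concentrations or buffers and across linkers. Negative Z-scores can be read as non-binding.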

[2] = target: Neu5Ac(a2-3)Gal6S(b1-4)GlcNAc
How it was run: as §1

[3] = target: Neu5Ac(a2-3)Gal6S(b1-4)[Fuc(a1-3)]GlcNAc
How it was run: as §1

[4] = target: Neu5Ac(a2-3)GalNAc
How it was run: as §1

[5] = target: Neu5Ac(a2-3)GalNAc(b1-4)GlcNAc
How it was run: as §1

[6] = target: Neu5Ac(a2-3)[GalNAc(b1-4)]Gal(b1-4)Glc
How it was run: as §1

[7] = target: Neu5Ac(a2-3)[GalNAc(b1-4)]Gal(b1-4)GlcNAc
How it was run: as §1

[8] = target: Neu5Ac(a2-3)[GalNAc(b1-4)]Gal(b1-4)GlcNAc(b1-3)GalNAc
How it was run: as §1

[9] = target: Neu5Ac(a2-3)[Neu5Ac(a2-6)]GalNAc
How it was run: as §1

[10] = target: Neu5Ac(a2-6)Gal
How it was run: as §1

[11] = target: Neu5Ac(a2-6)Gal(b1-3)GlcNAc(b1-3)[Gal(b1-4)GlcNAc(b1-6)]Gal(b1-4)Glc
How it was run: as §1

[12] = target: Neu5Ac(a2-6)Gal(b1-4)Glc
How it was run: as §1

[13] = target: Neu5Ac(a2-6)Gal(b1-4)GlcNAc
How it was run: as §1

[14] = target: Neu5Ac(a2-6)Gal(b1-4)GlcNAc(b1-2)Man(a1-3)Man(b1-4)GlcNAc(b1-4)GlcNAc
How it was run: as §1

[15] = target: Neu5Ac(a2-6)Gal(b1-4)GlcNAc(b1-2)Man(a1-3)[Gal(b1-4)GlcNAc(b1-2)Man(a1-6)]Man(b1-4)GlcNAc(b1-4)GlcNAc
How it was run: as §1

[16] = target: Neu5Ac(a2-6)Gal(b1-4)GlcNAc(b1-2)Man(a1-3)[GlcNAc(b1-2)Man(a1-6)]Man(b1-4)GlcNAc(b1-4)GlcNAc
How it was run: as §1

[17] = target: Neu5Ac(a2-6)Gal(b1-4)GlcNAc(b1-2)Man(a1-3)[GlcNAc(b1-2)Man(b1-4)GlcNAc(b1-2)Man(a1-6)]Man(b1-4)GlcNAc(b1-4)GlcNAc
How it was run: as §1

[18] = target: Neu5Ac(a2-6)Gal(b1-4)GlcNAc(b1-2)Man(a1-3)[Man(a1-6)]Man(b1-4)GlcNAc(b1-4)GlcNAc
How it was run: as §1

[19] = target: Neu5Ac(a2-6)Gal(b1-4)GlcNAc(b1-2)Man(a1-3)[Neu5Ac(a2-6)Gal(b1-4)GlcNAc(b1-2)Man(a1-6)]Man(b1-4)GlcNAc(b1-4)GlcNAc
How it was run: as §1

[20] = target: Neu5Ac(a2-6)Gal(b1-4)GlcNAc(b1-2)Man(a1-3)[Neu5Ac(a2-6)Gal(b1-4)GlcNAc(b1-2)Man(a1-6)]Man(b1-4)GlcNAc(b1-4)[Fuc(a1-6)]GlcNAc
How it was run: as §1

[21] = target: Neu5Ac(a2-6)Gal(b1-4)GlcNAc(b1-2)Man(a1-6)Man(b1-4)GlcNAc(b1-4)GlcNAc
How it was run: as §1

[22] = target: Neu5Ac(a2-6)Gal(b1-4)GlcNAc(b1-2)Man(a1-6)[Gal(b1-4)GlcNAc(b1-2)Man(a1-3)]Man(b1-4)GlcNAc(b1-4)GlcNAc
How it was run: as §1

[23] = target: Neu5Ac(a2-6)Gal(b1-4)GlcNAc(b1-2)Man(a1-6)[GlcNAc(b1-2)Man(a1-3)]Man(b1-4)GlcNAc(b1-4)GlcNAc
How it was run: as §1

[24] = target: Neu5Ac(a2-6)Gal(b1-4)GlcNAc(b1-2)Man(a1-6)[Man(a1-3)]Man(b1-4)GlcNAc(b1-4)GlcNAc
How it was run: as §1

[25] = target: Neu5Ac(a2-6)Gal(b1-4)GlcNAc(b1-3)Gal(b1-3)GlcNAc
How it was run: as §1

[26] = target: Neu5Ac(a2-6)Gal(b1-4)GlcNAc(b1-3)Gal(b1-4)GlcNAc
How it was run: as §1

[27] = target: Neu5Ac(a2-6)Gal(b1-4)GlcNAc(b1-3)Gal(b1-4)GlcNAc(b1-3)Gal(b1-4)GlcNAc
How it was run: as §1

[28] = target: Neu5Ac(a2-6)Gal(b1-4)GlcNAc(b1-3)Gal(b1-4)[Fuc(a1-3)]GlcNAc(b1-3)Gal(b1-4)[Fuc(a1-3)]GlcNAc
How it was run: as §1

[29] = target: Neu5Ac(a2-6)Gal(b1-4)GlcNAc(b1-3)GalNAc
How it was run: as §1

[30] = target: Neu5Ac(a2-6)Gal(b1-4)GlcNAc(b1-3)[Neu5Ac(a2-6)Gal(b1-4)GlcNAc(b1-6)]GalNAc
How it was run: as §1

[31] = target: Neu5Ac(a2-6)Gal(b1-4)GlcNAc(b1-6)GalNAc
How it was run: as §1

[32] = target: Neu5Ac(a2-6)Gal(b1-4)GlcNAc(b1-6)[Gal(b1-3)GlcNAc(b1-3)]Gal(b1-4)Glc
How it was run: as §1

[33] = target: Neu5Ac(a2-6)Gal(b1-4)GlcNAc6S
How it was run: as §1

[34] = target: Neu5Ac(a2-6)GalNAc
How it was run: as §1

[35] = target: Neu5Ac(a2-6)GalNAc(b1-4)GlcNAc
How it was run: as §1

[36] = target: Neu5Ac(a2-6)GalNAc(b1-4)GlcNAc6S
How it was run: as §1

[37] = target: Neu5Ac(a2-6)GlcNAc(b1-4)GlcNAc
How it was run: as §1

[38] = target: Neu5Ac(a2-6)GlcNAc(b1-4)GlcNAc(b1-4)GlcNAc
How it was run: as §1

[39] = target: Neu5Ac(a2-8)Neu5Ac
How it was run: as §1

[40] = target: Neu5Ac(a2-8)Neu5Ac(a2-3)Gal(b1-3)GalNAc(b1-4)[Neu5Ac(a2-8)Neu5Ac(a2-3)]Gal(b1-4)Glc
How it was run: as §1

[41] = target: Neu5Ac(a2-8)Neu5Ac(a2-3)Gal(b1-4)Glc
How it was run: as §1

[42] = target: Neu5Ac(a2-8)Neu5Ac(a2-3)[Gal(b1-3)GalNAc(b1-4)]Gal(b1-4)Glc
How it was run: as §1

[43] = target: Neu5Ac(a2-8)Neu5Ac(a2-3)[GalNAc(b1-4)]Gal(b1-4)Glc
How it was run: as §1

[44] = target: Neu5Ac(a2-8)Neu5Ac(a2-8)Neu5Ac
How it was run: as §1

[45] = target: Neu5Ac(a2-8)Neu5Ac(a2-8)Neu5Ac(a2-3)Gal(b1-4)Glc
How it was run: as §1

[46] = target: Neu5Ac(a2-8)Neu5Ac(a2-8)Neu5Ac(a2-3)[GalNAc(b1-4)]Gal(b1-4)Glc
How it was run: as §1

[47] = target: Neu5Ac(a2-8)Neu5Ac(a2-8)Neu5Ac(a2-8)Neu5Ac(a2-3)[GalNAc(b1-4)]Gal(b1-4)Glc
How it was run: as §1

[48] = target: Neu5Ac(b2-6)Gal(b1-4)GlcNAc
How it was run: as §1

[49] = target: Neu5Ac(b2-6)GalNAc
How it was run: as §1

[50] = target: Neu5Ac9Ac(a2-3)Gal(b1-3)GlcNAc
How it was run: as §1

[51] = target: Neu5Ac9Ac(a2-3)Gal(b1-4)GlcNAc
How it was run: as §1

[52] = target: Neu5Ac9Ac(a2-6)Gal(b1-4)GlcNAc
How it was run: as §1

[53] = target: Neu5Gc(a2-3)Gal(b1-3)GlcNAc
How it was run: as §1

[54] = target: Neu5Gc(a2-3)Gal(b1-3)[Fuc(a1-4)]GlcNAc
How it was run: as §1

[55] = target: Neu5Gc(a2-3)Gal(b1-4)Glc
How it was run: as §1

[56] = target: Neu5Gc(a2-3)Gal(b1-4)GlcNAc
How it was run: as §1

[57] = target: Neu5Gc(a2-3)Gal(b1-4)[Fuc(a1-3)]GlcNAc
How it was run: as §1

[58] = target: Neu5Gc(a2-6)Gal(b1-4)GlcNAc
How it was run: as §1

[59] = target: Neu5Gc(a2-6)GalNAc
How it was run: as §1

[60] = target: Neu5Gc(b2-6)Gal(b1-4)GlcNAc
How it was run: as §1

B1: Gal 8 (Homo sapiens), O00214_1 (protein)
chain: MMLSLNNLQNIIYNPVIPFVGTIPDQLDPGTLIVIRGHVPSDADRFQVDLQNGSSMKPRADVAFHFNPRFKRAGCIVCNTLINEKWGREEITYDTPFKREKSFEIVIMVLKDKFQVAVNGKHTLLYGHRIGPEKIDTLGIYGKVNIHSIGFSFSSDLQSTQASSLELTEISRENVPKSGTPQLRLPFAARLNTPMGPGRTVVVKGEVNANAKSFNVDLLAGKSKDIALHLNPRLNIKAFVRNSFLQESWGEEERNITSFPFSPGMYFEMIIYCDVREFKVAVNGVHSLEYKHRFKELSSIDTLEINGDIHLLEVRSW
[1]
  glycan array binding signal (z-score): -0.235
[2]
  glycan array binding signal (z-score): -0.089
[3]
  glycan array binding signal (z-score): -0.276
[4]
  glycan array binding signal (z-score): -0.201
[5]
  glycan array binding signal (z-score): -0.219
[6]
  glycan array binding signal (z-score): -0.224
[7]
  glycan array binding signal (z-score): -0.143
[8]
  glycan array binding signal (z-score): 0.2
[9]
  glycan array binding signal (z-score): -0.276
[10]
  glycan array binding signal (z-score): -0.236
[11]
  glycan array binding signal (z-score): -0.269
[12]
  glycan array binding signal (z-score): -0.118
[13]
  glycan array binding signal (z-score): -0.213
[14]
  glycan array binding signal (z-score): -0.191
[15]
  glycan array binding signal (z-score): -0.254
[16]
  glycan array binding signal (z-score): -0.262
[17]
  glycan array binding signal (z-score): -0.232
[18]
  glycan array binding signal (z-score): -0.656
[19]
  glycan array binding signal (z-score): -0.211
[20]
  glycan array binding signal (z-score): -2.59
[21]
  glycan array binding signal (z-score): -0.223
[22]
  glycan array binding signal (z-score): -0.203
[23]
  glycan array binding signal (z-score): -0.251
[24]
  glycan array binding signal (z-score): -0.252
[25]
  glycan array binding signal (z-score): 1.49
[26]
  glycan array binding signal (z-score): 0.344
[27]
  glycan array binding signal (z-score): 1.24
[28]
  glycan array binding signal (z-score): -0.201
[29]
  glycan array binding signal (z-score): -0.172
[30]
  glycan array binding signal (z-score): -0.231
[31]
  glycan array binding signal (z-score): -0.215
[32]
  glycan array binding signal (z-score): -0.157
[33]
  glycan array binding signal (z-score): -0.264
[34]
  glycan array binding signal (z-score): -0.217
[35]
  glycan array binding signal (z-score): -0.251
[36]
  glycan array binding signal (z-score): -0.215
[37]
  glycan array binding signal (z-score): -0.224
[38]
  glycan array binding signal (z-score): -0.22
[39]
  glycan array binding signal (z-score): -0.19
[40]
  glycan array binding signal (z-score): -0.942
[41]
  glycan array binding signal (z-score): 0.626
[42]
  glycan array binding signal (z-score): -0.28
[43]
  glycan array binding signal (z-score): -0.176
[44]
  glycan array binding signal (z-score): -0.275
[45]
  glycan array binding signal (z-score): -0.135
[46]
  glycan array binding signal (z-score): 0.35
[47]
  glycan array binding signal (z-score): -0.167
[48]
  glycan array binding signal (z-score): -0.194
[49]
  glycan array binding signal (z-score): 0.463
[50]
  glycan array binding signal (z-score): 0.202
[51]
  glycan array binding signal (z-score): -0.125
[52]
  glycan array binding signal (z-score): -0.272
[53]
  glycan array binding signal (z-score): 0.307
[54]
  glycan array binding signal (z-score): -0.233
[55]
  glycan array binding signal (z-score): 0.13
[56]
  glycan array binding signal (z-score): -0.262
[57]
  glycan array binding signal (z-score): -0.199
[58]
  glycan array binding signal (z-score): -0.197
[59]
  glycan array binding signal (z-score): -0.229
[60]
  glycan array binding signal (z-score): -0.219
